# Test results taken from paper PMC9911399, “Two distinct binding modes provide the RNA-binding protein RbFox with extraordinary sequence specificity”.
# Residue numbers refer to the chain shown, from its start. Some of the results follow.
# T1: RBFOX1 RRM (Homo sapiens, UniProt Q9NWB1 109-208)
# T1 sequence: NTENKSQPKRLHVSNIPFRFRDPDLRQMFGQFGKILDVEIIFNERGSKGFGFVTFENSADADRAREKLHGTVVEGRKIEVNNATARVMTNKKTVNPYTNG
# B1: AAACACC (DNA:RNA)
# RNA: GGGAGACCGGAAUUCAGAUUGUCCAAACACCUUAAAUCCCGUCGUAGCCACCA
# DNA 1: CAATCTGAATTCCGGTCTCCC
# DNA 2: TGGTGGCTACGACGGGATT
# B2: GGGUCCA (DNA:RNA)
# RNA: B1 RNA with A25G, A26G, A27G, C28U, A29C, C31A
# DNA 1: CAATCTGAATTCCGGTCTCCC
# DNA 2: TGGTGGCTACGACGGGATT
# B3: UAAAAAC (DNA:RNA)
# RNA: B1 RNA with A25U, C28A, C30A
# DNA 1: CAATCTGAATTCCGGTCTCCC
# DNA 2: TGGTGGCTACGACGGGATT
# B4: CGACUGC (DNA:RNA)
# RNA: B1 RNA with A25C, A26G, A29U, C30G
# DNA 1: CAATCTGAATTCCGGTCTCCC
# DNA 2: TGGTGGCTACGACGGGATT
# B5: GGCCUAA (DNA:RNA)
# RNA: B1 RNA with A25G, A26G, A27C, A29U, C30A, C31A
# DNA 1: CAATCTGAATTCCGGTCTCCC
# DNA 2: TGGTGGCTACGACGGGATT
# B6: CUUGUUU (DNA:RNA)
# RNA: GGGAGACCGGAAUUCAGAUUGUCCCUUGUUUUUAAAUCCCGUCGUAGCCACCA
# DNA 1: CAATCTGAATTCCGGTCTCCC
# DNA 2: TGGTGGCTACGACGGGATT
# B7: UGUAAAU (DNA:RNA)
# RNA: B6 RNA with C25U, U26G, G28A, U29A, U30A
# DNA 1: CAATCTGAATTCCGGTCTCCC
# DNA 2: TGGTGGCTACGACGGGATT
# B8: UUGAUAC (DNA:RNA)
# RNA: B6 RNA with C25U, U27G, G28A, U30A, U31C
# DNA 1: CAATCTGAATTCCGGTCTCCC
# DNA 2: TGGTGGCTACGACGGGATT
# B9: ACUUGGG (DNA:RNA)
# RNA: B1 RNA with A26C, A27U, C28U, A29G, C30G, C31G
# DNA 1: CAATCTGAATTCCGGTCTCCC
# DNA 2: TGGTGGCTACGACGGGATT
# B10: ACCUCGA (DNA:RNA)
# RNA: B1 RNA with A26C, A27C, C28U, A29C, C30G, C31A
# DNA 1: CAATCTGAATTCCGGTCTCCC
# DNA 2: TGGTGGCTACGACGGGATT
# B11: CGGGCAU (DNA:RNA)
# RNA: B6 RNA with U26G, U27G, U29C, U30A
# DNA 1: CAATCTGAATTCCGGTCTCCC
# DNA 2: TGGTGGCTACGACGGGATT
# B12: ACUACAA (DNA:RNA)
# RNA: B1 RNA with A26C, A27U, C28A, A29C, C30A, C31A
# DNA 1: CAATCTGAATTCCGGTCTCCC
# DNA 2: TGGTGGCTACGACGGGATT
# B13: GUUUAUU (DNA:RNA)
# RNA: B6 RNA with C25G, G28U, U29A
# DNA 1: CAATCTGAATTCCGGTCTCCC
# DNA 2: TGGTGGCTACGACGGGATT
# B14: UCAGCCA (DNA:RNA)
# RNA: B1 RNA with A25U, A26C, C28G, A29C, C31A
# DNA 1: CAATCTGAATTCCGGTCTCCC
# DNA 2: TGGTGGCTACGACGGGATT
# B15: AGUCUUC (DNA:RNA)
# RNA: B1 RNA with A26G, A27U, A29U, C30U
# DNA 1: CAATCTGAATTCCGGTCTCCC
# DNA 2: TGGTGGCTACGACGGGATT
# B16: UGAUGCA (DNA:RNA)
# RNA: B1 RNA with A25U, A26G, C28U, A29G, C31A
# DNA 1: CAATCTGAATTCCGGTCTCCC
# DNA 2: TGGTGGCTACGACGGGATT
# B17: CCGGAGU (DNA:RNA)
# RNA: B6 RNA with U26C, U27G, U29A, U30G
# DNA 1: CAATCTGAATTCCGGTCTCCC
# DNA 2: TGGTGGCTACGACGGGATT
# B18: GAAAGGA (DNA:RNA)
# RNA: B1 RNA with A25G, C28A, A29G, C30G, C31A
# DNA 1: CAATCTGAATTCCGGTCTCCC
# DNA 2: TGGTGGCTACGACGGGATT
# B19: CUAUCCC (DNA:RNA)
# RNA: B1 RNA with A25C, A26U, C28U, A29C
# DNA 1: CAATCTGAATTCCGGTCTCCC
# DNA 2: TGGTGGCTACGACGGGATT
# B20: CUUAAGA (DNA:RNA)
# RNA: B6 RNA with G28A, U29A, U30G, U31A
# DNA 1: CAATCTGAATTCCGGTCTCCC
# DNA 2: TGGTGGCTACGACGGGATT
# Biological target: T1, RBFOX1 RRM
# Assay: EMSA; HiTS-Eq, 1 nM pool, 10 min; buffer printed only for the single-RNA assays: 10 mM Tris pH 7.5, 150 mM NaCl, 3.4 mM EDTA, 0.001% NP-40, 30 C
# Conditions: tags: His6 N-terminal (pET28a); label: 5' 32P
# How it was run: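 Purified RbFox RRM, wild type or mutant, was incubated for 10 min in 50 µL with 1 nM of a 5′-radiolabelled RNA pool carrying 7 randomized nucleotides, whose flanks were annealed to DNA oligonucleotides, over a series of increasing protein concentrations. Unbound RNA was resolved on 8% native PAGE, cut out, reverse-transcribed, barcoded by PCR and sequenced on an Illumina HiSeq 2500. Relative association constants were derived from changes in read counts for each RNA species versus the control reaction and normalised to the cognate motif.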
row,Binder,binding signal
1,B1,0.00184 KA relative to UGCAUGU
2,B2,0.0128 KA relative to UGCAUGU
3,B3,0.00251 KA relative to UGCAUGU
4,B4,0.02 KA relative to UGCAUGU
5,B5,0.00539 KA relative to UGCAUGU
6,B6,0.0156 KA relative to UGCAUGU
7,B7,0.0112 KA relative to UGCAUGU
8,B8,0.0123 KA relative to UGCAUGU
9,B9,0.00696 KA relative to UGCAUGU
10,B10,0.00389 KA relative to UGCAUGU
11,B11,0.0317 KA relative to UGCAUGU
12,B12,0.00169 KA relative to UGCAUGU
13,B13,0.00899 KA relative to UGCAUGU
14,B14,0.00404 KA relative to UGCAUGU
15,B15,0.0128 KA relative to UGCAUGU
16,B16,0.0332 KA relative to UGCAUGU
17,B17,0.00728 KA relative to UGCAUGU
18,B18,0.00178 KA relative to UGCAUGU
19,B19,0.000849 KA relative to UGCAUGU
20,B20,0.0064 KA relative to UGCAUGU
